According to the supplement of paper PMC9433436:
± gives the standard deviation of the averaged measurements. In all, about 4,100 sequences were measured (“relative kcat/Km (krel) vs genomic leader AAAGAU”: median about 1.7, highest 2% from about 6.5 on). The entries are a selection whose mix differs from that of the whole data set.

Target: T1, E. coli RNase P holoenzyme (M1 P RNA + rnpA protein) (UniProt P0A7Y8)
T1 sequence: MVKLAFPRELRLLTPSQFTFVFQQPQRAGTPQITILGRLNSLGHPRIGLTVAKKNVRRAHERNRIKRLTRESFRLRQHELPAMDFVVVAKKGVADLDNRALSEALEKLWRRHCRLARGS
Test: relative kcat/Km (krel) vs genomic leader AAAGAU (relative (reference leader = 1)); higher = faster RNase P cleavage
Procedure: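 HTS-Kin: a pool of ptRNA-Met (21C construct) with all 4096 combinations of 5' leader nucleotides N(-6) to N(-1) was processed in vitro by E. coli RNase P (P RNA + rnpA/C5 protein) under multiple-turnover conditions at 37 C, pH 8, 17.5 mM MgCl2. Residual substrate was Illumina-sequenced at several fractions reacted, and relative kcat/Km (krel) was computed by internal competition kinetics, calibrated to the genomic leader (AAAGAU = 1). The listed hexamer is the varied N(-6)..N(-1) leader (DNA letters), and it sits between a fixed 5' stem-loop flank (GCAUGCACGAAAGUGCGUGCUAUGAA) and the mature tRNA-Met starting GGCUACGUAGCUCAGUUGG. Two technical replicates are averaged.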

[1] = fraction of substrate reacted: ~9-10% (9.79% repeat 1, 9.1% repeat 2)
[2] = fraction of substrate reacted: ~13-16% (15.68% repeat 1, 13.17% repeat 2)
[3] = fraction of substrate reacted: ~26-29% (28.66% repeat 1, 26.4% repeat 2)

Sequence	relative kcat/Km [1]	relative kcat/Km [2]	relative kcat/Km [3]
GGCCGA	1.949 ± 0.015	2.42 ± 0.35	3.95 ± 1.3
CTAAGG	0.616 ± 0.073	–	0.617 ± 0.46
GATCCC	1.88 ± 1.6	–	–
CGAGGA	1.55 ± 0.89	0.967 ± 0.6	1.41 ± 0.09
TGAACT	1.41 ± 0.67	1.85 ± 0.71	2.58 ± 0.76
GTTGCT	1.31 ± 0.97	–	1.08 ± 0.14
TCGCCA	1.7 ± 1.1	1.97 ± 0.14	1.98 ± 0.91
GAACTT	1.17 ± 0.27	2.01 ± 0.035	2.24 ± 0.82
ATCGGT	–	–	1.34 ± 0.33
TCTTTT	2.83 ± 0.77	3.27 ± 0.55	4.29 ± 1.7
CTGATG	–	–	0.566 ± 0.16
TACCCG	1.12 ± 0.77	0.792 ± 0.78	2.34 ± 0.82
GAGTTG	–	–	0.549 ± 0.24
AGTTGA	2.04 ± 0.023	2.78 ± 1.2	5.25 ± 2.5
CCGGGC	0.693 ± 0.032	–	–
TATTTC	3.05 ± 1.6	2.87 ± 0.086	4.12 ± 1.9
GTGTTA	1.3 ± 0.062	1.32 ± 0.083	1.45 ± 0.14
GGCCAT	2.24 ± 0.2	2.71 ± 0.61	4.24 ± 2
GAATAT	2.99 ± 0.33	4.3 ± 0.79	6.29 ± 3.4
GTAATC	2.47 ± 1.5	1.92 ± 0.42	2.8 ± 0.97
GTGTGG	–	–	0.958 ± 0.79
CCTTAA	3.45 ± 1.6	3.21 ± 0.41	4.82 ± 1.7

Sequence	relative kcat/Km [1]	relative kcat/Km [2]	relative kcat/Km [3]
TAAAAA	2.32 ± 1.7	2 ± 0.61	2.62 ± 0.62
GAGCCG	–	–	0.503 ± 0.095
CACGGC	–	–	1.55 ± 1.4
CGAAAC	3.1 ± 2.6	3.15 ± 0.72	3.81 ± 0.8
TTGTTA	2.11 ± 0.74	2.46 ± 0.57	3.37 ± 1.2
AGCGTT	0.85 ± 0.26	1.2 ± 0.48	1.58 ± 1
CCATAA	3.55 ± 1.6	2.67 ± 0.37	3.58 ± 0.78
TCAATG	–	1.01 ± 0.93	2.73 ± 0.39
GCAGCC	–	0.174 ± 0.14	0.786 ± 0.28
CGTACT	1.12 ± 0.53	0.899 ± 0.53	1.9 ± 0.12
GACGGA	–	1.21 ± 1.1	0.922 ± 0.64
GCACCT	1.56 ± 0.91	0.955 ± 0.064	1.56 ± 1.1
GTAATA	–	1.66 ± 0.19	2.4 ± 1
TGGCGC	–	–	0.264 ± 0.044
AGTGCC	2.18 ± 0.42	1.93 ± 0.48	1.81 ± 0.049
TCGATA	1.5 ± 0.34	1.5 ± 0.96	1.97 ± 0.85
CGGGCC	0.32 ± 0.084	–	–
CCTCTG	–	–	1.47 ± 0.38
AATGCC	2.38 ± 1.7	1.43 ± 0.1	1.48 ± 0.22
AGATCA	1.57 ± 0.078	1.42 ± 0.27	2.89 ± 1.4
ATCCTA	3.22 ± 1.7	3.39 ± 0.28	4.55 ± 1.7
TCTGCG	–	–	1.25 ± 0.26

Sequence	relative kcat/Km [1]	relative kcat/Km [2]	relative kcat/Km [3]
TGCACG	–	–	0.926 ± 0.2
ACACGA	2.06 ± 0.13	2.5 ± 1.2	2.94 ± 0.93
GCCACC	1.97 ± 0.06	2.25 ± 0.33	3.85 ± 1.4
ACGGTA	0.622 ± 0.39	2.17 ± 1.7	–
TCGACT	–	–	0.985 ± 0.14
TGGAGG	–	–	0.887 ± 0.34
CCTGTC	1.07 ± 1.1	1.91 ± 1.4	2.16 ± 0.74
CAACCG	–	–	0.953 ± 0.018
ATTGTA	1.33 ± 0.24	1.49 ± 0.07	2.21 ± 0.86
TATGGA	–	–	1.31 ± 1.2
AGCACC	2.38 ± 0.45	2.12 ± 1.5	3.05 ± 1.8
TCACTA	1.91 ± 0.81	1.58 ± 0.35	2.25 ± 0.33
TTTTAA	4.32 ± 1.7	4.88 ± 0.61	6.68 ± 2.5
GCATAG	–	0.443 ± 0.23	1.87 ± 0.65
GCCGGG	0.746 ± 0.37	–	0.279 ± 0.2
ATGAAA	1.99 ± 0.48	2.53 ± 0.066	3.89 ± 1.4
TTGACC	1.75 ± 0.21	1.64 ± 0.33	2.26 ± 0.51
AAGCTC	1.881 ± 0.011	2.12 ± 0.4	1.29 ± 0.13
CTGTGC	0.635 ± 0.093	0.681 ± 0.39	1.31 ± 0.41
ATATTA	2.33 ± 1.7	2.18 ± 0.77	3.23 ± 1.1
CGGACT	0.306 ± 0.14	0.0461 ± 0.0068	–
ATCGCG	2.62 ± 1.1	1.7 ± 0.89	3.07 ± 0.91

Sequence	relative kcat/Km [1]	relative kcat/Km [2]	relative kcat/Km [3]
TACAAA	3.89 ± 1.8	5.2 ± 0.41	7.71 ± 3
TTACGG	1.22 ± 0.84	–	1.08 ± 0.3
TCGCGA	1.14 ± 0.13	1.69 ± 1.5	2.62 ± 0.93
CCGTTT	2.55 ± 0.056	2.76 ± 0.66	3.74 ± 1.6
GGAGCA	1.92 ± 1.7	–	1.33 ± 0.18
CTGGTA	–	–	0.466 ± 0.074
TGCATA	0.947 ± 0.33	1.23 ± 0.12	2.13 ± 0.83
TGGAGC	–	0.914 ± 0.2	–
CTAGTT	1.78 ± 0.42	1.05 ± 0.21	1.24 ± 0.32
CAAAAT	2.15 ± 1	2.38 ± 0.084	2.84 ± 0.88
GAGCAC	2.38 ± 0.81	2.19 ± 1.3	3.84 ± 1.8
GGTATC	1.52 ± 0.37	1.35 ± 0.36	1.77 ± 0.96
GCTTCC	1.24 ± 0.43	1.32 ± 0.13	2.18 ± 0.12
AGTGTA	2.32 ± 1.4	1.27 ± 0.85	1.63 ± 0.6
CGAACC	2.51 ± 1.6	1.18 ± 0.14	1.48 ± 0.11
GTCCGC	3.94 ± 0.68	5.24 ± 1.4	–
TTCCGG	1.74 ± 1.5	0.738 ± 0.38	1.68 ± 0.19
GCCACT	–	1.51 ± 0.53	2.54 ± 0.06
TGCTGT	–	0.877 ± 0.71	1.11 ± 1.1
CGTGTC	0.995 ± 0.46	1.16 ± 0.23	1.24 ± 0.42
GGTGAG	–	–	0.87 ± 0.39
TACCGG	–	–	1.29 ± 0.22

Sequence	relative kcat/Km [1]	relative kcat/Km [2]	relative kcat/Km [3]
GGATTC	1.29 ± 0.44	1.08 ± 0.39	1.37 ± 0.96
CTCCTC	3 ± 1.3	3.49 ± 0.19	4.95 ± 1.7
TTGTGC	1.41 ± 0.67	1.16 ± 1	1.47 ± 0.29
ACCTGA	2.56 ± 0.24	4.16 ± 0.26	5.46 ± 3.1
CTAATT	2.55 ± 1	1.92 ± 0.32	2.36 ± 0.52
TTCCTA	3.35 ± 1.2	4.53 ± 0.46	5.89 ± 2.4
GTGAAT	1.67 ± 0.3	2.31 ± 0.99	2.52 ± 0.91
TTGGCA	0.832 ± 0.33	1.2 ± 0.47	1.36 ± 0.94
CTACCA	1.97 ± 1.1	1.07 ± 0.98	1.29 ± 0.13
AACGTG	–	–	0.741 ± 0.57
ACTTAG	2.33 ± 2.2	1.65 ± 0.094	2.85 ± 0.73
TAGTAT	3.26 ± 0.97	4.14 ± 0.84	6.5 ± 3.2
GGCCTA	1.06 ± 0.031	1.41 ± 0.32	1.67 ± 0.45
TCCAGC	4.58 ± 2.5	4.83 ± 0.15	6.09 ± 2
TTAGCC	2.49 ± 0.59	2.25 ± 0.4	2.69 ± 1.3
TAGAAC	3.23 ± 1.4	4.09 ± 0.35	5.64 ± 2.3
CTAAAA	2.15 ± 0.51	2.43 ± 0.18	2.89 ± 0.88
AACCCG	–	–	0.785 ± 0.38
GTCTTT	4.65 ± 1.2	5.87 ± 1.4	8.44 ± 3.8
TTGGAA	–	1.33 ± 0.71	1.15 ± 0.49
CACTCG	0.987 ± 0.92	1.52 ± 0.017	2.49 ± 0.23
